Over roughly 5,400 compounds, “IFI” has its median near 2; the highest 2% begin near 22. The list shows a part of the results.
assay: NOVARTIS: Inhibition Frequency Index (IFI) - the number of HTS assays where a compound showed > 50% inhibition/induction, expressed as a percentage of the number of assays in which the compound was tested.; type: functional

Point of comparison: O=S(=O)(Oc1ccc2ccccc2c1Cc1c(OS(=O)(=O)c2ccccc2)ccc2ccccc12)c1ccccc1, IFI 0%. Against it:
- CNC1=C(N(C(C)=O)c2ccc(Br)cc2)C(=O)c2ccccc2C1=O — higher, 14.3%
- Cc1ccc(C(=O)NNc2nc(Nc3ccccc3)nc(N3CCCC3)n2)cc1 — higher, 0.73%
- O=C1Nc2ccc(Br)cc2C12NCCc1c2[nH]c2ccccc12 (stereo not given) — higher, 1.09%
- COc1ccccc1-n1nnnc1SCC(=O)Nc1cc([N+](=O)[O-])ccc1C — higher, 2.75%
- Cc1cc(C)n(-c2ccc(NC(=O)C3CCN(Cc4ccc5nonc5c4)CC3)cc2)n1 — the same, 0%
- Cc1cc(Nc2cccc(C(F)(F)F)c2)nc(NCc2ccccc2)n1 — higher, 5.88%
- CC(C)(C)c1ccc(NC(=O)CN2CCCCC2)cc1 — higher, 2.65%
- CC1CN(C(=O)c2sc3cccc(F)c3c2Cl)CC(C)O1 (stereo not given) — the same, 0%
- Cc1nc(N2CCCCC2)c2c(C)c(C(=O)N3CCN(c4ccccc4F)CC3)sc2n1 — the same, 0%
- CCN1C(=Cc2sc3ccc(O)cc3[n+]2CC)C=Cc2cc(C)ccc21 — higher, 15.4%
- CCCC[C@@H](C)[C@@H](O)[C@H]1C(=O)N[C@@H](C(C)C)C(=O)N(C)[C@H](SC)C(=O)N(C)[C@@H](CC(C)C)C(=O)N[C@@H](C(C)C)C(=O)N(C)[C@@H](CC(C)C)C(=O)N[C@@H](C)C(=O)N[C@H](C)C(=O)N(C)[C@@H](CC(C)C)C(=O)N(C)[C@@H](CC(C)C)C(=O)N(C)[C@@H](C(C)C)C(=O)N1C — higher, 4.88%
- Cc1cc2c(Nc3cccc(Cl)c3C)ncnc2s1 — the same, 0%
- CCc1cccc(NC(=O)N2CCN(C(=O)c3nc(-c4ccccc4)nc(C)c3C(=O)OC(C)C)CC2C)c1 (stereo not given) — higher, 1.89%
- CC(=O)Oc1ccc(C(=O)C(C(C)=O)c2ccccc2)c(OC(C)=O)c1 (stereo not given) — the same, 0%
- CCOc1ccccc1C(=O)NC(Nc1sc2c(c1C(N)=O)CCCC2)(C(F)(F)F)C(F)(F)F — the same, 0%
- CC(=O)N1CCN(c2ccc(NC(=S)NC(=O)c3ccc(C)cc3)cc2)CC1 — the same, 0%
- COc1ccc(NC(=O)CCCCCn2c(SCc3cc(=O)oc4cc(O)ccc34)nc3ccsc3c2=O)cc1 — the same, 0%
- COCOc1ccc(-c2nc(-c3ccncc3)cnc2N)cc1 — the same, 0%
- C[C@H](Nc1cncc(-c2cccc(OC(F)(F)F)c2)n1)c1ccccc1 — the same, 0%
- CC(CCc1ccccc1)NCC(O)c1cccc([N+](=O)[O-])c1 (stereo not given) — higher, 2.38%
- COc1cc(OC)cc(C(=O)Nc2cc(C(=O)N3CCC(Cc4ccccc4)CC3)ccc2N2CC3CC(C2)c2cccc(=O)n2C3)c1 (stereo not given) — the same, 0%
- CC(=O)C1C(=O)c2c(cccc2[N+](=O)[O-])C1=Nc1ccccc1C (stereo not given) — the same, 0%
- Cn1cnnc1SCC(=O)Nc1ccccc1C(F)(F)F — the same, 0%
- CCOC(=O)CCCSc1nc(-c2cccs2)cc(C(F)(F)F)c1C#N — higher, 7.27%
- O=C(NCCCCNc1ccnc2cc(Cl)ccc12)c1cc(C(F)(F)F)cc(C(F)(F)F)c1 — higher, 1.85%
- Clc1ncnc2ncn(Cc3ccccc3)c12 — the same, 0%
- CCOC(=O)c1cnc2ccc(CC)cc2c1O — the same, 0%
- Cc1ccc(F)cc1NC(=O)Cn1c2ccccc2c(=O)c2cc(Cl)ccc21 — the same, 0%
- Cc1cc(C)n(CC(O)Cn2c3ccc(I)cc3c3cc(I)ccc32)n1 (stereo not given) — higher, 0.725%
- CCCC(=O)Oc1ccccc1-c1nc2cc(C)ccn2c1NC(C)(C)CC(C)(C)C — higher, 4.63%
- OC1(c2cccc3ccccc23)CCN(Cc2ccccc2)C1 (stereo not given) — higher, 2.17%
- COc1ccccc1C(=O)NN=C(C)c1cccnc1 — higher, 0.73%
- Cc1cc(NC(c2cccc(Br)c2)c2ccc3cccnc3c2O)no1 (stereo not given) — higher, 4.35%
- Cc1c(Cl)cccc1NC(=O)C1C(C(=O)O)C2C=CC1C21CC1 (stereo not given) — higher, 7.69%
- Cc1n(N)c2ccccc2[n+]1CC(=O)c1ccc([N+](=O)[O-])cc1 — the same, 0%
- Cc1nc2ccc(-c3ccc4nc(C)[nH]c4c3)cc2[nH]1 — higher, 3.08%
- CCCNC(=O)N1CCC2(CC1)CC(=O)c1ccccc1O2 — the same, 0%
- O=C(COc1ccc(-c2ncccn2)cc1CN1CCCCCC1)NCc1ccccc1C(F)(F)F — higher, 2.8%
- Cc1cc2c(cc1C)NC(c1ccc(Cl)c(F)c1)C1=C(CC(C)(C)CC1=O)N2 (stereo not given) — higher, 1.21%
- CCN(CC)C1SC=C(c2ccc([N+](=O)[O-])cc2)S1 (stereo not given) — the same, 0%
- CC(c1nc2ccccc2c(=O)n1-c1ccc(Br)cc1)N1CCN(S(=O)(=O)c2ccc3ccccc3c2)C(C)C1 (stereo not given) — higher, 1.87%
- CCCCCCCCn1c(C)[n+](CC)c2cc(C(=O)OCC)ccc21 — higher, 7.14%
- O=c1cc[nH]c2cc(N3CCCCCC3)c(F)cc12 — the same, 0%
- CC(=NNc1nc(-c2ccccc2O)nc2ccccc12)c1ccccc1O — the same, 0%
- CN(C)c1nnc(/C(C#N)=C/c2cc(C(=O)c3cccc(Cl)c3)cn2C)o1 — higher, 0.848%
- CC(=O)NC1=NN(C(C)=O)C(c2ccc(Br)cc2)S1 (stereo not given) — higher, 2.13%
- CCCCCCN(C(=O)COCc1ccccc1)C(C)c1nc2ccccc2c(=O)n1-c1cccc(Cl)c1C (stereo not given) — higher, 0.935%
- CCCCC(=O)N(C/C=C/c1ccccc1OC)CCN1CCN(C(=O)NC23CC4CC(CC(C4)C2)C3)CC1 — higher, 2.75%
- c1cc2cc3c(cc2c2cc4c(cc12)C[N+]1(CCCC1)C4)C[N+]1(CCCC1)C3 — higher, 1.54%
- CS(=O)(=O)c1ccccc1S(=O)(=O)N1CCC(NC(=O)c2ccccc2Cl)(C(=O)O)CC1 — higher, 2.94%
- O=C(Cn1c(=O)oc2cc(Cl)ccc21)c1ccccc1 — higher, 1.51%
- Cc1cc(-c2cnc(C)nc2C2CCN(C(=O)c3ccc4ncccc4c3)CC2)on1 — the same, 0%
- CN(C)C(=O)C1C2NC(=S)N(c3ccccc3)C1(C)Oc1ccccc12 (stereo not given) — the same, 0%
- CCCCCCCCCCCCCC(=O)Oc1ccccc1-c1nc2cc(C)ccn2c1NC(C)(C)CC(C)(C)C — higher, 3.7%
- CCOC(=O)C1=C(N)N(c2cccc([N+](=O)[O-])c2)C2=C(C(=O)CC(C)(C)C2)C1c1ccc(Cl)cc1 (stereo not given) — the same, 0%
- O=C(C(Cc1ccc(O)cc1)c1ccccc1)N1CCC(n2c(Cc3ccc(F)cc3)nc3cccnc32)CC1 (stereo not given) — higher, 7.07%
- CCOC(=O)c1cnc2ccc(C)cc2c1NCCCN1CCOCC1 — higher, 4.76%
- COc1cc(OC)cc(-n2nc(C(=O)NCCCN3CC(C)CC(C)C3)c3ccccc3c2=O)c1 (stereo not given) — the same, 0%
- CCOC(=O)C1=C(C)NC2=C(C(=O)CC(c3ccc(OC)c(OC)c3)C2)C1c1ccccc1OC (stereo not given) — higher, 2.33%
- CCc1ccccc1N=C1c2c(cccc2[N+](=O)[O-])C(=O)C1C(C)=O (stereo not given) — the same, 0%
- O=C(CSc1nc(NCc2ccccc2)c2ccccc2n1)NCc1ccco1 — the same, 0%
- COCCOC(=O)C1=C(C)NC2=C(C(=O)CC(c3ccc(OC)c(OC)c3)C2)C1c1ccc(Cl)cc1Cl (stereo not given) — higher, 3.53%
- O=C1N(Cc2cc3ccccc3s2)CC2CN(Cc3cccc4c3OCO4)CCN12 (stereo not given) — higher, 1.39%
- Cc1cccc(N2C(N)=NC(N)=NC2(C)C)c1 — the same, 0%
- Cc1nc(-c2ccccc2)nc(C(=O)N2CCN(C(=O)NC3CCCCC3)C(C)C2)c1C(=O)OC(C)C (stereo not given) — higher, 2.83%
- O=C(c1cccc([N+](=O)[O-])c1)c1ccc(Cl)c(Cl)c1 — the same, 0%
- CCCCNC(=O)C(c1cccc(OC)c1)N1C(=O)c2cc(OCCCC)ccc2NC(=O)C1CO (stereo not given) — higher, 0.98%
- CN(C)c1ccc2c(c1)Sc1cc(N(C)C)ccc1N2C(=O)c1ccccc1 — higher, 3.88%
- CCc1c(C)c(=N)c2ccccc2n1C — the same, 0%
- Cc1nc([P+](c2ccccc2)(c2ccccc2)c2ccccc2)c(SCc2ccccc2)o1 — higher, 21.6%
- Cc1oc(C)c2c(=O)cc(-c3cccs3)cc(O)c12 — higher, 2.75%
- CCN1/C(=C/c2sc3ccc(OC)cc3[n+]2CC)C=Cc2cc(OC)ccc21 — higher, 15.4%
- COCCNC(=O)c1ccc(OC2CCN(CC(c3ccccc3)c3ccccc3)CC2)c(OC)c1 — higher, 1.37%
- CCC(Oc1ccc(C(C)(C)CC)cc1C(C)(C)CC)C(=O)Nc1ccc([N+](=O)[O-])cc1O (stereo not given) — the same, 0%
- Cc1ccc(-n2c(C(C)N(CCc3ccccc3)C(=O)c3cccc(F)c3)nc3ccccc3c2=O)c(C)c1 (stereo not given) — higher, 0.943%
- CCCC(=O)NC(c1ccc(Cl)cc1)c1ccc2cccnc2c1O (stereo not given) — higher, 16%
- CCOC(=O)C1=C(C)NC2=C(C(=O)CC(C)(C)C2)C1c1ccc(Cl)cc1 (stereo not given) — the same, 0%
- CCCCCc1ccc(C(=O)Oc2ccccc2-c2nc3cc(C)ccn3c2NC(C)(C)CC(C)(C)C)cc1 — higher, 4.35%
- CCCC1=NN(c2nc3ccccc3s2)C(=O)C1 — the same, 0%
- Brc1ccc(C=Nc2ccc(-c3nc4cc(-c5ccc6[nH]c(-c7ccc(N=Cc8ccc(Br)cc8)cc7)nc6c5)ccc4[nH]3)cc2)cc1 — higher, 23.1%
- Clc1ccccc1C(c1ccccc1)(c1ccccc1)n1ccnc1 — the same, 0%
- O=C(c1ccccc1)N1CCN(CC(O)COCc2ccccc2)CC1 (stereo not given) — higher, 2.7%
- Nc1nc(N)c2cc(S(=O)(=O)N3CCSCC3)ccc2n1 — higher, 17.7%
- CCOc1ccc2nc3ccc([N+](=O)[O-])cc3c(NC)c2c1 — higher, 7.14%
- COC(=O)c1cc(NC(=S)NC(=O)c2c(OC)cccc2OC)cc(C(=O)OC)c1 — the same, 0%
- O=C(c1nccs1)C1CCN(C(=O)c2cscn2)CC1 — the same, 0%
- CC1(C)CC(NC(=O)Cc2ccc(Cl)cc2)CC(C)(C)N1 — the same, 0%
- COC(=O)c1c(NC(=O)c2ccc(S(=O)(=O)N3CCOCC3)cc2)sc2c1CCN(C(C)=O)C2 — the same, 0%
- C=CCNC(=O)c1ccc2c(c1)N=C(CC(C)c1ccccc1)N(CCCN1CCCC1=O)C2 (stereo not given) — higher, 1.24%
- Cc1cccc(C)c1NC(=O)N1CCN(C(=O)c2nc(-c3ccccc3)nc(C)c2C(=O)OC(C)C)CC1C (stereo not given) — higher, 2.8%
- COc1ccc(NC(=O)c2cnn(-c3ccccc3)c2NC(=O)c2ccco2)cc1 — higher, 1.18%
- CCC1=[N+](C)c2cccc3cccc(c23)N1C — higher, 3.12%
- Cc1cc(C)cc(NCC(O)Cn2c3ccc(Cl)cc3c3cc(Cl)ccc32)c1 (stereo not given) — higher, 5%
- CCCN1CCN(C(=O)C(=O)Nc2ccc3nc4n(c(=O)c3c2)CCCCC4)CC1 — the same, 0%

— ChEMBL document CHEMBL1156829
